Test results: PubChem BioAssay (Tox21)
Several values for one entry are separate records, joined by “and”; a condition that tells them apart may be missing. Equal values may be shown once. The inconclusive results got no clear call from the source; some entries with a clear call stand among them for comparison. For some of these results: Potencies of inconclusive entries are doubtful fits and often do not repeat. Where a structure was tested more than once in an assay, its records may differ in their call. Activity calls are given as the source filed them. Unless noted, calls come from the whole dose curve; as a rule, active = well fitted curve in the direction sought with a large enough effect in the repeat runs; inconclusive = weak or mixed curves; inactive = no such curve, though single readings can be large; an effect the other way counts as inactive or inconclusive.

Assays:
[1] = qHTS assay for identifying genotoxic compounds that show differential cytotoxicity against isogenic chicken DT40 cell lines with known DNA damage response pathways - Rad54/Ku70 mutant cell line (AID 743015); details: DT40 Rad54/Ku70 mutant viability, CellTiter-Glo, 40 h; activity change, negative = cytotoxicity: at 66.8 µM (top of the series); note: nearly all actives have a fitted effect of over 60% in size; note: potency is the fitted concentration of half-maximal effect; for activity change, negative = cytotoxicity: % is set by controls: 0 for no effect and ±100 for the full control effect
[2] = target: Estrogen receptor (Homo sapiens) (UniProt P03372); test: qHTS assay to identify small molecule antagonists of the estrogen receptor alpha (ER-alpha) signaling pathway (AID 743069; active = well fitted curve in the direction sought with a large enough effect in the signal ratio in the repeat runs, not every such curve was filed as active; inconclusive = weak or mixed curves, or effect the other way; inactive = no such curve, though single readings can be large or run the other way; the % refers to the signal ratio; note: potency is the fitted concentration of half-maximal effect); details: HEK293 ER-alpha-UAS-bla, beta-lactamase ratio, antagonist mode; activity, negative = inhibition: at 69.4 µM (top of the series) unless noted
Chain of UniProt P03372 (P03372 whole entry, looked up): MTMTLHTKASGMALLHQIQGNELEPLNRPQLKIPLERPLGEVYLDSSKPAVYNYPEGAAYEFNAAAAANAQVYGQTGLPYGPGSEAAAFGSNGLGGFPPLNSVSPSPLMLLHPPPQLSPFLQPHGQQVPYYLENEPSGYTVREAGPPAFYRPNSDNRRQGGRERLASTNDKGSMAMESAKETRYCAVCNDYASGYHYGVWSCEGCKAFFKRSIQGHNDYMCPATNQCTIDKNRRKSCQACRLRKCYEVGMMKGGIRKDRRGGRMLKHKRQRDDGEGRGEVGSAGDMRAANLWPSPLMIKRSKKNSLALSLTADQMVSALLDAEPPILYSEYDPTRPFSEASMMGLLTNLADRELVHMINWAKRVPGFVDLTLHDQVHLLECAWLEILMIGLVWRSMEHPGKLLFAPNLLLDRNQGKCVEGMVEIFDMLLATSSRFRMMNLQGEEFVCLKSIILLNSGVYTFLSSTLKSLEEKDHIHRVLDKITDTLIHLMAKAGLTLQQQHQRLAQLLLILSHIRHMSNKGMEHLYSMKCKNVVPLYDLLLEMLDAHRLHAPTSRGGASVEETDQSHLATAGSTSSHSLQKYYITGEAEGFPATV
Summary of the method: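 HEK293 cells stably carrying an ER-alpha-UAS-bla beta-lactamase reporter were pre-cultured overnight in 2% charcoal-stripped FBS medium. Test compounds in DMSO were added together with 17beta-estradiol for 18 hr at 37C. Read-out was fluorescence after 2 hr with LiveBLAzer B/G FRET substrate at room temperature.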

[3] = qHTS assay to identify small molecule antagonists of the estrogen receptor alpha (ER-alpha) signaling pathway using the BG1 cell line (AID 743080; calls by dose curve;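 note: BG1 cells stimulated with 17beta-estradiol alongside compound; nearly all actives have a fitted effect of over 25% in size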; note: potency is the fitted concentration of half-maximal effect; for activity change, negative = inhibition: % is set by controls: 0 for no effect and ±100 for the full control effect); details: BG1Luc4E2 ERE-luciferase antagonist mode, luminescence; activity change, negative = inhibition: at 70.3 µM (top of the series) unless noted
Summary of the method: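 BG1-Luc-4E2 cells (endogenous full-length ER-alpha, stable 4×ERE-luciferase) were starved 5 days in phenol-red-free medium with 10% charcoal-stripped FBS, plated 24 h, then given compound plus 17beta-estradiol for 21.5 h at 37 C; ONE-Glo luminescence read after 30 min.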

[4] = qHTS assay to identify small molecule antagonists of the androgen receptor (AR) signaling pathway - cell viability counter screen (AID 743033; note: nearly all actives have a fitted effect of over 45% in size; note: potency is the fitted concentration of half-maximal effect); details: AR-bla HEK293 viability, CellTiter-Glo luminescence, 16 h; activity change, negative = cytotoxicity: at 58.5 µM (top of the series)
[5] = target: Androgen receptor (Homo sapiens) (UniProt P10275); test: qHTS assay to identify small molecule antagonists of the androgen receptor (AR) signaling pathway (AID 743035; active = well fitted inhibition curve with a large enough effect in the signal ratio in the repeat runs, not every such curve was filed as active; inconclusive = weak or mixed curves, or effect the other way; inactive = no such curve, though single readings can be large or run the other way; the % refers to the signal ratio; note: potency is the fitted concentration of half-maximal effect); details: HEK293 AR-UAS-bla, R1881-stimulated, beta-lactamase FRET, 16 h; activity change, negative = inhibition: at 58.5 µM (top of the series) unless noted
Chain of UniProt P10275 (P10275 whole entry, looked up): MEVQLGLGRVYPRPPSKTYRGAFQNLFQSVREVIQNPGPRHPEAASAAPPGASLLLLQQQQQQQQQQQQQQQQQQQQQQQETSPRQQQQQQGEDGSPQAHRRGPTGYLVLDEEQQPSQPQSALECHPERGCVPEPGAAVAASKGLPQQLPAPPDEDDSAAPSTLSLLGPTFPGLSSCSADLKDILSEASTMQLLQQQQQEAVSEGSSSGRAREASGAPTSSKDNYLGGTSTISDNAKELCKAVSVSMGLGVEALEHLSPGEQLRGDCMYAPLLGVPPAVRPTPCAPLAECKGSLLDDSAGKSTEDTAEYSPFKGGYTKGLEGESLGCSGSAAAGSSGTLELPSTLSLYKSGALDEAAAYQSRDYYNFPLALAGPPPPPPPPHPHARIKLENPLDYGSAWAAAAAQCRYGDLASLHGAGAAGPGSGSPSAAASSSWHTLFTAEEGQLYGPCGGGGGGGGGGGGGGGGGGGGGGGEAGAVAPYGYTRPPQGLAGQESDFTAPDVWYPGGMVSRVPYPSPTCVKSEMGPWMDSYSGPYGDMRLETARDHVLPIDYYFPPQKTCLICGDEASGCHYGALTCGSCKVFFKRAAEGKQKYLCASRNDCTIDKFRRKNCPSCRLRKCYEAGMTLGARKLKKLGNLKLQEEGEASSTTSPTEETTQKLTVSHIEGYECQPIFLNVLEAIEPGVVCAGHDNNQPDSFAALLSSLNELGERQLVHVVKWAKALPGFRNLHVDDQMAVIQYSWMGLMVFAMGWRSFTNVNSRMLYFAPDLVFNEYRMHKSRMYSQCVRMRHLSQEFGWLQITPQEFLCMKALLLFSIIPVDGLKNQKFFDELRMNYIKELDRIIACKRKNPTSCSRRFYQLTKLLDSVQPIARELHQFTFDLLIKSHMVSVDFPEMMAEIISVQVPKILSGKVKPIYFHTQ
Summary of the method: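 Using qHTS, AR-UAS-bla GripTite HEK293 cells received compound, then R1881, and were cultured 16 h at 37C/5% CO2 before a 2 h room-temperature LiveBLAzer B/G FRET substrate step and fluorescence measurement.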

[6] = target: Androgen receptor (Homo sapiens) (UniProt P10275); test: qHTS assay to identify small molecule agonists of the androgen receptor (AR) signaling pathway (AID 743036; active = well fitted activation curve with a large enough effect in the signal ratio in the repeat runs, with a control signal flat, not every such curve was filed as active; inconclusive = weak or mixed curves, or effect the other way; inactive = no such curve, though single readings can be large or run the other way; the % refers to the signal ratio; note: potency is the fitted concentration of half-maximal effect; for activation: % is set by controls: 0 for no effect and ±100 for the full control effect); details: HEK293 AR-UAS-bla GripTite, beta-lactamase FRET ratio, 16 h; activation: at 62.4 µM (top of the series) unless noted
Summary of the method: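 AR-UAS-bla HEK293 cells, plated 4 h before dosing, were treated with compound for 16 h at 37C. beta-Lactamase reporter read after 2 h with LiveBLAzer B/G FRET substrate at room temperature.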

[7] = qHTS assay to identify small molecule antagonists of the androgen receptor (AR) signaling pathway using the MDA cell line - cell viability counter screen (AID 743041; note: nearly all actives have a fitted effect of over 45% in size; note: potency is the fitted concentration of half-maximal effect); details: MDA-kb2 viability, CellTiter-Fluor, 16 h, cells co-treated with R1881 androgen agonist; viability change, negative = cytotoxic: at 70.3 µM (top of the series) unless noted
Summary of the method: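 MDA-kb2 AR-luc human breast carcinoma cells (MMTV-luciferase, AR/GR responsive) were treated with compounds plus R1881 agonist for 16 h at 37 °C. Viability was read as CellTiter-Fluor fluorescence in the same wells as the reporter assay.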

[8] = target: Androgen receptor (Homo sapiens) (UniProt P10275); test: qHTS assay to identify small molecule antagonists of the androgen receptor (AR) signaling pathway using the MDA cell line (AID 743042; note: potency is the fitted concentration of half-maximal effect; nearly all actives have a fitted effect of over 55% in size); details: MDA-kb2 AR-luc, MMTV luciferase, R1881 antagonist, 16 h; series mostly up to 70.3 µM
Summary of the method: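 MDA-kb2 cells (human breast carcinoma, stably carrying an MMTV-luciferase reporter responsive to AR and GR) were plated at 3,000 cells/well and preincubated 5 hr at 37C, then given compound plus R1881 agonist for 16 h. ONE-Glo luminescence was read.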

[9] = qHTS assay to identify small molecule antagonists of the estrogen receptor alpha (ER-alpha) signaling pathway - cell viability counter screen (AID 743074; calls by dose curve; note: nearly all actives have a fitted effect of over 45% in size; note: potency is the fitted concentration of half-maximal effect); details: ERalpha-bla HEK293 viability, CellTiter-Glo luminescence, 18 h; series mostly up to 69.4 µM
[10] = target: Estrogen receptor (Homo sapiens) (UniProt P03372); test: qHTS assay to identify small molecule agonists of the estrogen receptor alpha (ER-alpha) signaling pathway (AID 743075; calls by dose curve; note: potency is the fitted concentration of half-maximal effect); details: HEK293 ER-alpha-UAS-bla, beta-lactamase FRET ratio, 18 h; series mostly up to 70.1 µM
[11] = target: Estrogen receptor (Homo sapiens) (UniProt P03372); test: qHTS assay to identify small molecule agonists of the estrogen receptor alpha (ER-alpha) signaling pathway using the BG1 cell line (AID 743079); details: BG1Luc4E2 cells, ERE-luciferase agonist, 22 h; activation: at 70.3 µM (top of the series) unless noted; note: nearly all actives have a fitted effect of over 20% in size; note: potency is the fitted concentration of half-maximal effect
[12] = qHTS assay to identify aromatase inhibitors - cell viability counter screen (AID 743084); details: MCF-7 aro ERE viability, CellTiter-Fluor, 24 h; activity change, negative = cytotoxicity: at 70.3 µM (top of the series);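 note: cells stimulated with testosterone during compound exposure; nearly all actives have a fitted effect of over 55% in size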; note: potency is the fitted concentration of half-maximal effect
[13] = qHTS assay to identify small molecule antagonists of the thyroid receptor (TR) signaling pathway - cell viability counter screen (AID 743064); details: GH3.TRE-Luc viability, CellTiter-Fluor, 24 h; activity change, negative = cytotoxic: at 70.3 µM (top of the series) unless noted; note: nearly all actives have a fitted effect of over 50% in size; note: potency is the fitted concentration of half-maximal effect
Summary of the method: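 GH3.TRE-Luc rat pituitary cells dosed after 4 hr plating, co-stimulated with T3 at 1 nM final, incubated 23.5 h at 37 C. Viability measured in the same wells by CellTiter-Fluor fluorescence after 30 min further at 37 C.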

[14] = qHTS assay to identify small molecule antagonists of the estrogen receptor alpha (ER-alpha) signaling pathway using the BG1 cell line - cell viability counter screen (AID 743081); details: BG1Luc4E2 viability, CellTiter-Fluor, 22 h; series mostly up to 70.3 µM;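 note: compound given together with 17beta-estradiol as the ER stimulus; nearly all actives have a fitted effect of over 45% in size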; note: potency is the fitted concentration of half-maximal effect
[15] = qHTS assay to identify small molecule antagonists of the thyroid receptor (TR) signaling pathway (AID 743065); details: GH3.TRE-Luc, T3-stimulated luciferase inhibition, 23.5 h; series mostly up to 70.3 µM; note: % is set by controls: 0 for no effect and ±100 for the full control effect; nearly all actives have a fitted effect of over 55% in size
Summary of the method: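 GH3.TRE-Luc rat pituitary cells carrying two TR response elements driving luciferase were plated for 4 h, given compound plus 1 nM T3 (final), and incubated 23.5 h at 37 C. ONE-Glo luminescence measured reporter inhibition; CellTiter-Fluor fluorescence tracked cytotoxicity.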

[16] = tested on: thyroid hormone receptor (rat, GH3 cells); test: qHTS assay to identify small molecule agonists of the thyroid receptor (TR) signaling pathway (AID 743066; calls by dose curve; note: % is set by controls: 0 for no effect and ±100 for the full control effect); details: GH3.TRE-Luc cells, TR agonist luciferase, 24 h; activation: at 83.9 µM (top of the series) unless noted
Aromatase (Homo sapiens) = Aromatase (Homo sapiens) (UniProt P11511); test: qHTS assay to identify aromatase inhibitors (AID 743083); details: MCF-7 aro ERE, testosterone-driven ERE luciferase, 24 h; series mostly up to 70.3 µM; note: potency is the fitted concentration of half-maximal effect; nearly all actives have a fitted effect of over 55% in size
Chain of UniProt P11511 (P11511 whole entry, looked up): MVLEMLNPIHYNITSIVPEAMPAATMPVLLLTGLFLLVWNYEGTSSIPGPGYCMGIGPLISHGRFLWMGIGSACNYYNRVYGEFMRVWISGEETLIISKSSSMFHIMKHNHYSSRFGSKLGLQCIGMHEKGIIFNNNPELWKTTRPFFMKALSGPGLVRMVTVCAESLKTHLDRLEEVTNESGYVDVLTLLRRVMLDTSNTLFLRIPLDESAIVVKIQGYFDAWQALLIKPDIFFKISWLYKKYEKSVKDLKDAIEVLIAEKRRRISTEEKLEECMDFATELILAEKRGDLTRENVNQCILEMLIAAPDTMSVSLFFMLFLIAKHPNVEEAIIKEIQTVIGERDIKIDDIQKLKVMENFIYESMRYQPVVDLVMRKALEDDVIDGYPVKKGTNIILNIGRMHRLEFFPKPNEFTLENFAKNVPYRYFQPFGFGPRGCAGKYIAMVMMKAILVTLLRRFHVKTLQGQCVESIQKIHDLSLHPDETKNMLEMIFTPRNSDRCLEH
Tags give direction and shape of the fitted curve or compound fluorescence and quenching.

SMILES: C=C(C)C(=O)OCCOCCOC(=O)C(=C)C
- Potency [1]: inactive
- Potency [2]: inconclusive: 61.6 µM [activator]
- Potency [3]: inactive

SMILES: O=C(Nc1ccccc1)c1ccccc1O
- Potency [4]: inconclusive: 43.6 µM [cytotoxic, partial curve]
- Potency [5]: inconclusive: 49 µM [partial curve]
- activation [6]: inconclusive: -21.6%
- Potency [7]: inconclusive: 61.1 µM [cytotoxic, single point]
- Potency [8]: inconclusive: 61.1 µM [inhibitor, single point]
- Potency [2]: inconclusive: 49 µM [fluorescent, partial curve, poor fit]
- Potency [9]: inconclusive: 49 µM [cytotoxic, single point]
- Potency [10]: inconclusive: 2.19 µM [falling, full curve, poor fit]
- Potency [11]: inconclusive: 77 µM [inhibitor, single point]
- Potency [3]: inconclusive: 8.63 µM [rising, partial curve]
- Potency [12]: inactive

SMILES: OC[C@@H](O)[C@@H](O[C@@H]1O[C@H](CO)[C@H](O)[C@H](O)[C@H]1O)[C@H](O)[C@@H](O)CO
- Potency [1]: inactive
- Potency [11]: active: 596 nM and inactive

SMILES: O=C1NC(=O)[C@@H]2CC=CC[C@H]12
- Potency [1]: inconclusive: 68.6 µM [cytotoxic, single point]
- Potency [9]: inactive

SMILES: CCCCCCCCCCCC(C)=O
- Potency [1]: inactive
- Potency [10]: inconclusive: 30.9 µM [falling, partial curve, poor fit]
- Potency [11]: active: 17.2 µM

SMILES: c1cc(N(CC2CO2)CC2CO2)ccc1Cc1ccc(N(CC2CO2)CC2CO2)cc1 (configuration not stated)
- Potency [4]: active: 54.9 µM
- Potency [5]: inconclusive: 4.9 µM [rising, full curve, poor fit]
- Potency [6]: inconclusive: 9.77 µM [rising, full curve]
- Potency [7]: inactive
- Potency [13]: active: 13.7 µM
- Potency [2]: inconclusive: 49 µM [fluorescent, partial curve]
- Potency [10]: inconclusive: 3.89 µM [falling, partial curve, poor fit]
- Potency [11]: inconclusive: 68.6 µM [inhibitor, single point]
- Potency [3]: inconclusive: 77 µM [falling, single point]
- Potency [14]: inconclusive: 68.6 µM [cytotoxic]
- Potency [12]: active: 27.3 µM

SMILES: O=C(O)[C@H](O)[C@@H](O)[C@H](O[C@@H]1O[C@H](CO)[C@H](O)[C@H](O)[C@H]1O)[C@H](O)CO
- Potency [4]: inactive
- Potency [15]: inactive
- Potency [2]: inactive
- Potency [14]: inconclusive: 0.0143 µM [rising, full curve, poor fit]
- Potency [12]: inactive

SMILES: C=C(C)C(=O)OCCCCCCCCCC
- Potency [4]: inconclusive: 49.3 µM [cytotoxic, partial curve, poor fit]
- Potency [13]: inactive
- Potency [16]: inactive
- Potency [9]: inactive

SMILES: COC(=O)Nc1nc2ccc(Sc3ccccc3)cc2[nH]1
- Potency [4]: inconclusive: 2.29 µM [cytotoxic, full curve, poor fit]
- Potency [13]: active: 202 nM and inconclusive: 486 nM [cytotoxic, full curve]
- Potency [9]: inconclusive: 0.91 µM [rising, partial curve, poor fit]
- Potency [12]: inconclusive: 24.3 µM [cytotoxic, partial curve]

SMILES: CC(C)(C)C1CCC(O)CC1 (configuration not stated)
- Potency [4]: inactive
- Potency [13]: inconclusive: 13.9 µM [rising, single point] and inconclusive: 27.3 µM [rising, single point]
- Potency [9]: inconclusive: 22.2 µM [rising, partial curve, poor fit]

SMILES: O=C1CCCCCCCCCCCCCCO1
- Potency [4]: inactive
- Potency [13]: inactive
- Potency [14]: inactive

SMILES: CC(C(=O)O)c1ccc(C(=O)c2cccs2)cc1 (configuration not stated)
- Potency [4]: inactive
- Potency [15]: inactive

SMILES: CC(=O)Oc1c(C)c(C)c2c(c1C)CC[C@@](C)(CCC[C@H](C)CCC[C@H](C)CCCC(C)C)O2
- Potency [4]: inconclusive: 61.7 µM [cytotoxic, single point]
- Potency [13]: inconclusive: 0.0668 µM [rising, full curve, poor fit]
- Potency [9]: inconclusive: 54.9 µM [rising, partial curve, poor fit]

SMILES: Cc1cccc2sc(N)nc12
- Potency [4]: inactive
- Potency [15]: inactive
- Potency [2]: inactive

SMILES: CCN(CC)c1ccc2c(-c3ccccc3C(=O)O)c3ccc(=[N+](CC)CC)cc-3oc2c1
- Potency [4]: inconclusive: 49 µM [cytotoxic]
- Potency [13]: active: 5.45 µM
- activity, negative = inhibition [2]: inconclusive: -24.5%
- Potency [10]: inactive
- Potency [11]: inconclusive: 30.6 µM [inhibitor, partial curve, poor fit]
- Potency [14]: active: 9.69 µM
- Potency (Aromatase (Homo sapiens)): inconclusive: 61.1 µM [inhibitor, partial curve]
- Potency [12]: active: 8.63 µM
